Test results reported in ChEMBL document CHEMBL4888484, “Replenishing the malaria drug discovery pipeline: Screening and hit evaluation of the MMV Hit Generation Library 1 (HGL1) against asexual blood stage Plasmodium falciparum ,using a nano luciferase reporter read-out” (2022).
The whole screen tested about 150,000 compounds, of which about 540 (0.36%) showed an effect of 50% or more. This is one part of the list.

What follows are molecules tested on Plasmodium falciparum (assay: Primary screen in NF54 nanoGlo assay, in single point, at 2uM, 72h; a lower Z score goes with more inhibition). Conditions: timepoint 72 hour.
Assay type: functional, Erythrocyte

| SMILES | % Inhibition | Z score |
| --- | --- | --- |
| CN1CCN(C(=O)C(F)(F)[C@@]2(F)OC(F)(F)C(F)(F)C2(F)F)CC1 | -7% | 1.27 |
| Cn1ccnc1CNC[C@H]1Cn2c(-c3ccc4c(c3)OCCO4)cnc2CO1 | -8% | 1.45 |
| COCCn1cnnc1CNC(=O)c1ccn(C)c1C | -1% | 0.1 |
| COCc1cc(CNc2ccc(C)nc2C)no1 | -6% | 1.1 |
| CN1CCN(C(=O)c2cc(-c3ccc4c(c3)OCCO4)nc3ccccc23)CC1 | -10% | 1.67 |
| O=C(NCc1cccs1)N1CC(Oc2cccc(C(F)(F)F)n2)C1 | -9% | 1.8 |
| Cc1ncn(Cc2ncnn2-c2ccc3c(c2)OCO3)c1C | -8% | 1.6 |
| Cc1n[nH]c(CN(C)CCC2(O)CCCC2)c1Cl | 3% | -0.5 |
| CCNC(=O)c1ccccc1NC(=O)C(C)(C)C | -1% | 0.13 |
| COc1cccc(N2CCN(C(=O)c3ccc(-n4cnc(NC(C)=O)c4)cc3)CC2)c1 | 15% | -1.72 |
| O=C1N[C@@H](CC2CCCCC2)C(=O)N[C@H]1COCc1ccccc1 | -8% | 1.07 |
| O=C1NCCCCCCN(Cc2ccc(F)cc2F)[C@H]2CCC[C@@H]12 | -20% | 2.62 |
| COCc1noc([C@@H]2CN(C(=O)c3ccc(Cl)s3)C[C@H]2C(N)=O)n1 | -10% | 1.56 |
| O=C(CN1CCN(c2cccc(Cl)c2)C1=O)N1CCN(c2ccccc2O)CC1 | 16% | -1.81 |
| CN(c1ccc(C(=O)O)cc1)S(=O)(=O)c1cnn(C2CCCC2)c1 | 10% | -1.96 |
| COc1ccc(C(=O)N2C[C@H]3COCC[C@@]3(O)[C@@H]3COCC[C@@H]32)cc1O | -10% | 0.89 |
| CCOc1ncccc1C(=O)N1CCn2cncc2C1 | -3% | 0.55 |
| COc1ccc2c(c1)C(=O)N(Cc1ccccc1)C1CCCCC21 (centres undefined) | -18% | 2.11 |
| CN1CCN(c2ccccc2NC(=O)N[C@@H]2CCCC[C@H]2NC(=O)OC(C)(C)C)CC1 | -3% | 0.39 |
| CC1(C)O[C@@H]2C[C@@](OCc3ccccc3F)(C(=O)NC3CC3)CC(OCc3cccc(Cl)c3)[C@@H]2O1 (some centres undefined) | -12% | 1.61 |
| Cc1cc(C)c(C#N)c(N2CCn3nc([C@H](O)c4nccn4C)cc3C2)n1 | -4% | 0.57 |

| SMILES | % Inhibition | Z score |
| --- | --- | --- |
| O=C(Nc1cccnc1)c1cccc(Oc2cccc(C(F)(F)F)c2)c1 | -13% | 1.85 |
| FC(F)(F)c1cc(-c2ccco2)n(-c2nc(-c3ccc(Cl)cc3)cs2)n1 | -9% | 1.43 |
| Cc1ccc([C@@H]2C[C@H](c3cccc(Cl)c3)n3nc(N)nc3N2)cc1 | 3% | -0.37 |
| CCC(CC)n1ncc(C)c1NC(=O)C[C@H]1CCC(=O)N1 | 4% | -0.65 |
| C[C@@H](C1CCN(C(=O)c2cccc(N)n2)CC1)N1CCN(C)CC1 | -14% | 1.52 |
| Cc1nc([C@H]2C[C@@H]2c2ccccc2)n(CC(C)(C)O)n1 | 1% | -0.17 |
| O=C(CN1CCO[C@H]2CCCC[C@@H]21)NCc1cccs1 | 10% | -1.79 |
| O=C(CC(=O)NC1CCCCC1)NC1CCCCC1 | -1% | 0.12 |
| Cc1nccn1CCC(=O)NCC1(CO)CCC1 | -20% | 2.06 |
| O=C(CC1CC2CCC1C2)N1CCC2(CC1)C(F)(F)C2(F)F (centres undefined) | -18% | 2.01 |
| C[C@@H]1CN(S(=O)(=O)c2cnn(C)c2)C[C@H](C)N1CC(F)(F)F | -10% | 1.61 |
| O=C(CCCc1ccccc1)Nc1ccc2c(c1)C(=O)N1CCC[C@H]1C(=O)N2 | -6% | 0.82 |
| CCCc1noc(-c2cn(C3CCN(C(=O)c4cccc(C#N)c4)CC3)nn2)n1 | -1% | 0.12 |
| Cc1cccnc1C(=O)N1CCC2(CC1)C[C@@H]2NC(=O)C(C)C | 1% | -0.09 |
| COc1cccc(CNc2nc(-c3cccc(OC)c3)no2)c1 | -10% | 1.52 |
| COC(=O)C(C)N1CC(OC)C(OC)C1 (centres undefined) | -1% | 0.1 |
| OCC1CCCCC1NCc1nc(C(F)(F)F)cs1 (centres undefined) | -7% | 1.29 |
| CN(CC(=O)NCCCn1cc(Cl)cn1)Cc1ccccn1 | -8% | 1.55 |
| CCN1CCC(NC(=O)N2CCCC2C2CCC2)CC1C (centres undefined) | -3% | 0.28 |
| CN(Cc1cnccn1)C(=O)C1(Cc2ccc(F)cc2)CCOCC1 | 7% | -0.96 |
| CC(C)(C)c1ccc(=O)n(CC2CN(C3CCCC3O)C2)n1 (centres undefined) | -6% | 0.83 |
